Several values for one entry are separate records, joined by “and”; a condition that tells them apart may be missing. Equal entries are not always repeated.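 A five-concentration, 48-hour dose response in 96-well plates underlies each endpoint, interpolated linearly between surrounding concentrations. GI50 marks 50% less growth. At the TGI there is no net growth.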

This test concerns NCI-H322M lung. Kind of test: NCI anticancer screen, dose series, 48 h.

Regarding `Cc1ccccc1[C@H]1C(C(=O)c2ccc(Cl)cc2)C2(N[C@@H]1c1ccccc1)C(=O)Nc1ccc(Cl)cc12` (stereo partly drawn), the GI50 was 4900 nM and the TGI came out at 9970 nM.
For `CC12OOC(C)(OO1)C2CCC(=O)NCCCNc1ccnc2cc(Cl)ccc12` (stereo not drawn), the GI50 is over 20000 nM and the TGI was over 20000 nM.
For `CC(=O)Oc1ccccc1C(=O)[Se]C(=NC1CCCCC1)NC1CCCCC1`, the GI50 was 1700 nM and the TGI stood at 3170 nM.
Consider `O=C(c1cc2cc(OCCCN3CCC3)ccc2[nH]1)N1C[C@@H](CCl)c2c1cc(OCc1ccccc1)c1ccccc21`, for which the GI50 is 360 nM and 256 nM; the TGI was 1570 nM and 1030 nM.

The record behind these values is PubChem BioAssay (NCI).
